The record followed here is a collection of fitness landscapes (doi:10.1126/science.1257360).

To fix the notation:
B1: PhoQ; a variant is named by its letters at X, in order, P23837 (parent)
chain: MKKLLRLFFPLSLRVRFLLATAAVVLVLSLAYGMVALIGYSVSFDKTTFRLLRGESNLFYTLAKWENNKLHVELPENIDKQSPTMTLIYDENGQLLWAQRDVPWLMKMIQPDWLKSNGFHEIEADVNDTSLLLSGDHSIQQQLQEVREDDDDAEMTHSVAVNVYPATSRMPKLTIVVVDTIPVELKSSYMVWSWFIYVLSANLLLVIPLLWVAAWWSLRPIEALAKEVRELEEHNRELLNPATTRELTSLVRNLNRLLKSERERYDKYRTTLTDLTHSLKTPLXXLQXXLRSLRSEKMSVSDAEPVMLEQISRISQQIGYYLHRASMRGGTLLSRELHPVAPLLDNLTSALNKVYQRKGVNISLDISPEISFVGEQNDFVEVMGNVLDNACKYCLEFVEISARQTDEHLYIVVEDDGPGIPLSKREVIFDRGQRVDTLRPGQGVGLAVAREITEQYEGKIVAGESMLGGARMEVIFGRQHSAPKDE

This is one part of the list. Some results are limits rather than exact numbers.

The variants in the test derive from B1. As to the kind of experiment: enrichment ratio after two sorts for PhoP signalling (ratio (wild type AVST 3.29)); higher = more functional. Conditions: with PhoP (E. coli).
Take ISIG: the enrichment ratio was ≤ 0.25.

Consider NYRP, for which the enrichment ratio is ≤ 0.25.

For RTRR, the enrichment ratio was ≤ 0.25.

Regarding TDYL, the enrichment ratio is ≤ 0.25.

On to DGAT, for which the enrichment ratio was ≤ 0.25.

Regarding THKA, the enrichment ratio was ≤ 0.25.

LVDN: the enrichment ratio was ≤ 0.25.

As for QEWP, the enrichment ratio was ≤ 0.25.

On to ALFT, for which the enrichment ratio is ≤ 0.25.

As for RDGK, the enrichment ratio was ≤ 0.25.

Consider HDTD, for which the enrichment ratio is ≤ 0.25.

As for YDSC, the enrichment ratio was ≤ 0.25.

As to ACVI, the enrichment ratio amounted to 4.3.

LRES: the enrichment ratio is ≤ 0.25.

As to EFQL, the enrichment ratio was ≤ 0.25.

As for GEFI, the enrichment ratio was ≤ 0.25.

For the variant QCCH, the enrichment ratio was ≤ 0.25.

Regarding MSDG, the enrichment ratio is ≤ 0.25.

Consider HRAA, for which the enrichment ratio is ≤ 0.25.

For YLRK, the enrichment ratio was ≤ 0.25.

Regarding LNSV, the enrichment ratio was ≤ 0.25.

On to HWYP, for which the enrichment ratio was ≤ 0.25.

With FFVV, the enrichment ratio was ≤ 0.25.

Regarding MHDH, the enrichment ratio is ≤ 0.25.

Turning to KPYL, the enrichment ratio is ≤ 0.25.

Turning to HPSC, the enrichment ratio is ≤ 0.25.

Take PNLG: the enrichment ratio was ≤ 0.25.

For WRCP, the enrichment ratio was ≤ 0.25.

MNEC: the enrichment ratio is ≤ 0.25.

For the variant GNKS, the enrichment ratio is ≤ 0.25.

As to CSAV, the enrichment ratio is ≤ 0.25.

Consider RCMN, for which the enrichment ratio was ≤ 0.25.

For PADN, the enrichment ratio is ≤ 0.25.

With QKPL, the enrichment ratio is ≤ 0.25.

As for KWAT, the enrichment ratio is ≤ 0.25.

For QFVK, the enrichment ratio is ≤ 0.25.

For the variant QICQ, the enrichment ratio was ≤ 0.25.

Regarding IDET, the enrichment ratio is ≤ 0.25.

For KNAT, the enrichment ratio is ≤ 0.25.

In the case of RAHQ, the enrichment ratio is ≤ 0.25.

As to WGRA, the enrichment ratio is ≤ 0.25.

As to DVQF, the enrichment ratio is ≤ 0.25.

Take DAYK: the enrichment ratio is ≤ 0.25.

As for PDTT, the enrichment ratio was ≤ 0.25.

For SFCS, the enrichment ratio is ≤ 0.25.

With HTKY, the enrichment ratio is ≤ 0.25.

For the variant TAPM, the enrichment ratio was ≤ 0.25.

With PKIF, the enrichment ratio is ≤ 0.25.

As for QIMM, the enrichment ratio was ≤ 0.25.

Take DEDQ: the enrichment ratio was ≤ 0.25.

As to IEHG, the enrichment ratio is ≤ 0.25.

Regarding FWWR, the enrichment ratio was ≤ 0.25.

Consider LPKH, for which the enrichment ratio was ≤ 0.25.

As for LAMF, the enrichment ratio was ≤ 0.25.

For QPIE, the enrichment ratio was ≤ 0.25.

For the variant KKHR, the enrichment ratio was ≤ 0.25.

MPTQ: the enrichment ratio is ≤ 0.25.

As to FCMK, the enrichment ratio is ≤ 0.25.

On to RPAV, for which the enrichment ratio was ≤ 0.25.

Regarding MVCA, the enrichment ratio was ≤ 0.25.

Take VMKW: the enrichment ratio is ≤ 0.25.

Turning to FVAI, the enrichment ratio is ≤ 0.25.

Turning to QGAS, the enrichment ratio was found to be 0.936.

FIPK: the enrichment ratio is 0.294.

On to NATF, for which the enrichment ratio is ≤ 0.25.

As for PLCM, the enrichment ratio was ≤ 0.25.

As to NIMI, the enrichment ratio was ≤ 0.25.

Take SHNH: the enrichment ratio came to 1.34.

With AVCS, the enrichment ratio amounted to 8.99.

Consider PRPA, for which the enrichment ratio is ≤ 0.25.

Consider QQYR, for which the enrichment ratio was ≤ 0.25.

In the case of DCQR, the enrichment ratio was ≤ 0.25.

Regarding FCAN, the enrichment ratio is ≤ 0.25.

Regarding ECVY, the enrichment ratio is ≤ 0.25.

For the variant EVAP, the enrichment ratio was ≤ 0.25.

Take MNGW: the enrichment ratio was ≤ 0.25.

With DQCE, the enrichment ratio is ≤ 0.25.

With RYHI, the enrichment ratio was ≤ 0.25.

As for VAFI, the enrichment ratio was 0.629.

In the case of NIIC, the enrichment ratio was ≤ 0.25.

SIYV: the enrichment ratio was ≤ 0.25.

On to DNAW, for which the enrichment ratio was ≤ 0.25.

For GSPK, the enrichment ratio is ≤ 0.25.

Consider IEEW, for which the enrichment ratio was ≤ 0.25.

LNLR: the enrichment ratio is ≤ 0.25.

Take YGQD: the enrichment ratio was ≤ 0.25.

Turning to RSNF, the enrichment ratio was ≤ 0.25.

For YNYD, the enrichment ratio is ≤ 0.25.

As to SLKS, the enrichment ratio is ≤ 0.25.

On to SHWR, for which the enrichment ratio was ≤ 0.25.

Consider FENG, for which the enrichment ratio was ≤ 0.25.

For VCHF, the enrichment ratio is ≤ 0.25.

In the case of VWMT, the enrichment ratio is ≤ 0.25.

In the case of RYVY, the enrichment ratio is ≤ 0.25.

Consider DVPA, for which the enrichment ratio is ≤ 0.25.

For HGND, the enrichment ratio was ≤ 0.25.

For the variant MIND, the enrichment ratio was ≤ 0.25.

NCTH: the enrichment ratio was ≤ 0.25.

With ALVS, the enrichment ratio is ≤ 0.25.

For the variant IEPY, the enrichment ratio is ≤ 0.25.

Regarding MKPM, the enrichment ratio was ≤ 0.25.

As to AIHR, the enrichment ratio was ≤ 0.25.

Turning to LHGW, the enrichment ratio was ≤ 0.25.

Regarding YKYS, the enrichment ratio was ≤ 0.25.

With PRKD, the enrichment ratio is ≤ 0.25.

With LKKN, the enrichment ratio is ≤ 0.25.

Turning to FMTD, the enrichment ratio was ≤ 0.25.

YIHS: the enrichment ratio is ≤ 0.25.

As for ISEY, the enrichment ratio was ≤ 0.25.

For YAKS, the enrichment ratio was ≤ 0.25.

HHED: the enrichment ratio was ≤ 0.25.

Take ITYD: the enrichment ratio is ≤ 0.25.

Consider TTII, for which the enrichment ratio is ≤ 0.25.

For RWFR, the enrichment ratio is ≤ 0.25.

Take PLWW: the enrichment ratio is ≤ 0.25.

Take WVRQ: the enrichment ratio was ≤ 0.25.

For the variant LIKK, the enrichment ratio was ≤ 0.25.

With FGSS, the enrichment ratio was ≤ 0.25.

Regarding SSVP, the enrichment ratio is ≤ 0.25.

With FYKQ, the enrichment ratio is ≤ 0.25.

DYSK: the enrichment ratio was ≤ 0.25.

For VGVQ, the enrichment ratio is ≤ 0.25.

On to ENSS, for which the enrichment ratio is ≤ 0.25.

For WHYL, the enrichment ratio was ≤ 0.25.

As to SRSA, the enrichment ratio was ≤ 0.25.

With FWVQ, the enrichment ratio is ≤ 0.25.

Take ESDQ: the enrichment ratio was ≤ 0.25.

In the case of TAMV, the enrichment ratio stood at 14.2.

Regarding RCHG, the enrichment ratio is ≤ 0.25.

For DPVN, the enrichment ratio is ≤ 0.25.

ITGS: the enrichment ratio is ≤ 0.25.

As to FKLC, the enrichment ratio is ≤ 0.25.

As to FSGY, the enrichment ratio was ≤ 0.25.

As for QVYT, the enrichment ratio was ≤ 0.25.

As for LLGS, the enrichment ratio is ≤ 0.25.

As for GSNF, the enrichment ratio was ≤ 0.25.

For FRTQ, the enrichment ratio was ≤ 0.25.

As for FHIV, the enrichment ratio is ≤ 0.25.

For GYCF, the enrichment ratio is ≤ 0.25.

On to IWIQ, for which the enrichment ratio was ≤ 0.25.

Take EKTP: the enrichment ratio is ≤ 0.25.

In the case of QIFR, the enrichment ratio is ≤ 0.25.

LRGH: the enrichment ratio was ≤ 0.25.

With YEWI, the enrichment ratio is ≤ 0.25.

As to GRHA, the enrichment ratio is ≤ 0.25.

Regarding PWLF, the enrichment ratio was ≤ 0.25.

As to KNMI, the enrichment ratio is ≤ 0.25.

Consider QGWY, for which the enrichment ratio was determined as 75.8.

Consider KLFA, for which the enrichment ratio was ≤ 0.25.

As to AVLK, the enrichment ratio turned out to be 1.67.

Turning to YFYN, the enrichment ratio is ≤ 0.25.

Consider KDEI, for which the enrichment ratio is ≤ 0.25.

Regarding GCVC, the enrichment ratio is ≤ 0.25.
